B1: Myeloid differentiation primary response protein MyD88 (Homo sapiens), Q99836-1 (parent)
chain: MAAGGPGAGSAAPVSSTSSLPLAALNMRVRRRLSLFLNVRTQVAADWTALAEEMDFEYLEIRQLETQADPTGRLLDAWQGRPGASVGRLLELLTKLGRDDVLLELGPSIEEDCQKYILKQQQEEAEKPLQVAAVDSSVPRTAELAGITTLDDPLGHMPERFDAFICYCPSDIQFVQEMIRQLEQTNYRLKLCVSDRDVLPGTCVWSIASELIEKRCRRMVVVVSDDYLQSKECDFQTKFALSLSPGAHQKRLIPIKYKAMKKEFPSILRFITVCDYTNPCTKSWFWTRLAKALSLP

In this assay the parent is B1. Particulars: with irak1_human IRAK1, P51617.
Take S224N: the “effect of a mutation on the interaction” value is reported as “increasing interaction strength”.
Under P265L stands “decreasing interaction strength”; under T287P, “disrupting interaction strength”; under S209R, “increasing interaction strength”.
Under M219T stands “increasing interaction strength”.

These data come from IntAct's records for PubMed 21179087.
